Reference: ChEMBL document CHEMBL1201862, “PubChem BioAssay data set” (2004)
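Cultured in 96-well plates, cells were exposed to test compound for 48 hours across five concentrations. GI50 = concentration required for 50% inhibition of growth.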 Activity calls are given as the source filed them. Rule as the data show it: active = GI50 up to about 1.1 µM and inactive = higher.

What follows are molecules tested on NCI-H322M (assay: inhibition of tumour cell growth, NCI panel, 48 h).

| Structure (SMILES) | GI50 |
| --- | --- |
| Cc1ccc(NC(=O)CSc2nnc(Cc3ccccc3)o2)cc1 | inactive: > 100 µM |
| N#C/C(=C\c1ccc(O)c(O)c1)C(=O)NC1CCC(CC2CCC(NC(=O)/C(C#N)=C/c3ccc(O)c(O)c3)CC2)CC1 (stereo not drawn) | inactive: 13.1 µM |
| O=C1c2ccccc2C(=O)c2c(NCCNCCO)ccc(O)c21 | inactive: 2.67 µM |
| COc1cc2c(cc1O)CCN[C@@]21CS[C@H]2c3c(OC(C)=O)c(C)c4c(c3C(COC1=O)N1C2C2c3c(cc(C)c(OC)c3O)CC([C@@H]1O)N2C)OCO4 (stereo partly drawn) | active: 0.0146 µM |
| C=CCn1cnc2c(O)nc(Nc3ccccc3)nc21 | inactive: > 100 µM |
| c1ccc([P+](CCC[P+](c2ccccc2)(c2ccccc2)c2ccccc2)(c2ccccc2)c2ccccc2)cc1 | inactive: 98.4 µM |
| CN(C)CC1CC/C(=C\c2ccc(O)cc2)C1=O (stereo not drawn) | inactive: 16.8 µM |
| Cc1ccc(N)cc1.O=S(=O)(O)/C(=C\c1ccccc1)c1ccccc1 | inactive: > 100 µM |
| COc1cc(-c2cc(O)c(-c3ccc4ccccc4n3)c(O)n2)cc(OC)c1OC | inactive: > 69.5 µM |
| O=C1Nc2ccccc2C1(O)Cc1ccccn1 (stereo not drawn) | inactive: > 100 µM |
| Cc1ccc(S(=O)(=O)Nn2c(-c3ccccc3)c(C#N)c(-c3ccc(Cl)cc3)c(C#N)c2=O)cc1 | inactive: 23 µM |
| CC(=O)O[C@H]1CCC2[C@@H]3CCC4=C(O)c5nocc5C[C@]4(C)C3CC[C@@]21C (stereo partly drawn) | inactive: > 100 µM |
| O=C(O)[C@H]1CCCN1CP(=O)(O)CN1CCC[C@@H]1C(=O)O | inactive: > 100 µM |
| COc1cccc(C2CC(=O)c3cccn32)c1 (stereo not drawn) | inactive: > 100 µM |
| CC(C)NC(=O)OCc1c2c(n(C)c1COC(=O)NC(C)C)-c1ccccc1CC2 | inactive: 16.7 µM |
| COC(=O)N/N=C(\c1nc2ccc(Cl)cc2nc1O)C(O)c1ccc([N+](=O)[O-])cc1 (stereo not drawn) | inactive: > 100 µM |
| Cc1cc(C)c(S(=O)(=O)N2CCCN(S(=O)(=O)c3c(C)cc(C)cc3C)OCCCO2)c(C)c1 | inactive: > 100 µM |
| CCCC1C(=O)C(CC)Cc2c(OC)ccc(OC)c21 (stereo not drawn) | inactive: > 100 µM |
| Cc1ccc(OCCn2cc(Nc3ccccc3)c(=O)n(CCOc3ccc(C)cc3)c2=O)cc1 | inactive: > 100 µM |
| COC(=O)N1CC2C3C4CC(C(c5ccccc5)=C4c4ccccc4)C3C21 (stereo not drawn) | inactive: 14.4 µM |
| O=C(/N=C1/NCC(CN2CCN(c3ccccc3)CC2)O1)Nc1ccccc1 (stereo not drawn) | inactive: > 100 µM |
| Cc1ccc(S(=O)(=O)NC(=O)Nc2ccc(S(N)(=O)=O)cc2S(N)(=O)=O)cc1 | inactive: > 100 µM |
| Cc1cccc(Br)[n+]1[O-] | inactive: > 100 µM |
| CC(C)(C)OC(=O)NCC(=O)NC1CC=CCC1NC(=O)CNC(=O)OC(C)(C)C (stereo not drawn) | inactive: > 100 µM |

| Structure (SMILES) | GI50 |
| --- | --- |
| Cc1ccc([N+](=O)[O-])cc1S(=O)(=O)Nc1ccc(C2=NN(C(=O)c3ccccc3)C(c3cccs3)C2)cc1 (stereo not drawn) | inactive: 35.6 µM |
| COC(=O)c1cc2c(cc1Cl)Sc1nnc(Nc3ccccc3)n1S2(=O)=O | inactive: 6.81 µM |
| CCOC(=O)C1=C(C)OC(=O)[C@@]2(OC)C=C(Cl)[C@@]12C | inactive: > 100 µM |
| CN(C)CCC(C(=O)C(C)(C)C)c1ccccn1 (stereo not drawn) | inactive: > 100 µM |
| Clc1cc(N/N=C(/c2ccccc2)c2ncccn2)ncn1 | inactive: 24.3 µM |
| COc1cc(C2S/C(=C/c3ccccc3)C(=O)N2c2ccccc2Cl)cc(OC)c1OC (stereo not drawn) | inactive: 17.3 µM |
| O=C1C=CC(=O)N1c1ccc2c(c1)Cc1cc(NC(=O)C(F)(F)F)ccc1-2 | inactive: > 42.4 µM |
| CCCCCCCCCCCCCC[S+](C)C | inactive: 5.12 µM |
| Cc1ccc(O)c(C2=CC(c3cccc(Br)c3)SC(=N)N2)c1 (stereo not drawn) | inactive: 33.7 µM |
| CCOC(=O)CCC(NC(=O)c1ccc(Nc2cnc3cc(C(F)(F)F)ccc3n2)cc1)C(=O)OCC (stereo not drawn) | inactive: > 100 µM |
| CNC(=O)OC1/C(C)=C\C(C)C(O)C(OC)CC(C)CC2=C(OC)C(=O)C=C(C2=O)N(C)C(=O)/C(C)=C/C=C\C1OC (stereo not drawn) | inactive: 21.4 µM |
| CN(c1ccccc1)C(c1ccccc1)C(O)c1ccccc1 (stereo not drawn) | inactive: 18.4 µM |
| CCC1NC(=O)C1NC(=O)OC (stereo not drawn) | inactive: > 100 µM |
| c1ccc2c(c1)[Se]c1ccccc1[Se]2 | inactive: 74.3 µM |
| COc1cc2ccnc(-c3n[nH]c4cc(OC)c(OC)cc34)c2cc1OC | inactive: > 100 µM |
| OCC(CCc1ccccc1I)C1=CCC2(CC1)OCCO2 (stereo not drawn) | inactive: 20.4 µM |
| COc1ccccc1C(=O)Nc1ccc(Cl)c(C(=O)OC(C)C)c1 | inactive: > 100 µM |
| S=c1sc2c(s1)SC(c1ccccc1)CS2 (stereo not drawn) | inactive: > 100 µM |
| N[C@@H](Cc1ccc2oc3cc(=O)c4ccccc4c-3nc2c1)C(=O)O | inactive: 30.5 µM |
| CCNC(=O)O/N=C1\CCC2[C@@H]3CC=C4C[C@@H](OC5CCCCO5)CC[C@]4(C)C3CC[C@]12C (stereo partly drawn) | inactive: 4.24 µM |
| C=CCOC(=O)CC[C@H](NC(=O)[C@@H](CCC(F)(F)F)Cc1ccc(O)cc1)C(=O)OCC=C | inactive: 63.4 µM |
| CC(=O)c1cccn1/C=C(\OC(=O)OC(C)(C)C)c1ccc[nH]1 | inactive: 55.7 µM |
| NC(=S)N/N=C(\C(=O)Nc1cccc([N+](=O)[O-])c1)c1nc2ccc([N+](=O)[O-])cc2nc1O | inactive: 46.3 µM |
| COc1ccc(C(=O)Cc2ccc(Br)cc2)cc1OC | inactive: > 100 µM |

| Structure (SMILES) | GI50 |
| --- | --- |
| COc1cc2cccc(/N=C\c3ccccc3Cl)c2cc1OC | inactive: > 100 µM |
| CCOC(=O)C1=C(C)C2C3C(=O)OC(=O)C3C1(C)C1C(=O)OC(=O)C21 (stereo not drawn) | inactive: 76.4 µM |
| O=[N+]([O-])C(Cl)C(Cl)C(Cl)=C(Cl)Cl (stereo not drawn) | inactive: 52.8 µM |
| COc1ccc(Nc2nc3c(N)cc(C(F)(F)F)cc3nc2-c2ccccc2)cc1OC | inactive: 31.6 µM |
| Cc1ccc2c(c1)CC1(C2=O)[C@H](c2ccccc2)C2C(=O)c3ccc(C)cc3C2[C@H]1c1ccccc1 (stereo partly drawn) | inactive: > 100 µM |
| N#Cc1ccccc1-c1nc2c3c(c(N)ccc3n1)C(=O)c1ccccc1-2 | inactive: 71.1 µM |
| Cc1ccc(NC(=O)C23CC4CC(CC(C4)C2)C3)c(C(=O)NNC(=O)c2ccc(Cl)cc2)c1 | inactive: 17.7 µM |
| C=CCOc1ccc(C2C(C(=O)OC)C(=O)CC(O)(c3ccccc3)C2C(=O)OC)cc1OC (stereo not drawn) | inactive: 26.3 µM |
| COc1c(CC(C)=O)c2ccccc2n1C(C)=O | inactive: > 100 µM |
| O=c1c(Cl)c(Cl)cnn1CCCl | inactive: 9.35 µM |
| CN(C)c1nnnn1-c1c(N)n(C)c(=O)n(C)c1=O | inactive: > 100 µM |
| N=C(N)NCCN1CCCCCc2ccccc21 | inactive: > 10 µM |
| COC(=O)c1c(O)ccc2c1c1cc3ccccc3cc1n2Cc1cc(OC)cc(OC)c1 | inactive: 6.56 µM |
| CC(C(=O)NCCNC(=O)CCCC(=O)N(C)O)C(=O)NCCNC(=O)CCCC(=O)N(C)O | inactive: > 100 µM |
| CC1(C)COC(c2cccc(C3=NC(C)(C)CO3)c2)=N1 | inactive: > 100 µM |
| CCCC(O)C(NC(=O)CCl)C(=O)O (stereo not drawn) | inactive: > 100 µM |
| CCn1cnc2c(=S)nc(N)[nH]c21 | inactive: > 100 µM |
| CC1CC(C)(C)CC(OCCN2CCCCC2)(c2ccccc2)C1 (stereo not drawn) | inactive: 10.5 µM |
| CCC(Oc1ccc(OC)c2c1C(=O)CCC2)C(=O)O (stereo not drawn) | inactive: > 100 µM |
| N#CC(C#N)=c1ccc(=C2NCC3CCCN23)cc1 (stereo not drawn) | inactive: > 100 µM |
| Clc1ccc(OCc2nnc3n2N=C(c2ccc(Br)cc2)CS3)cc1 | inactive: 34.8 µM |
| Cn1c(N/N=C/c2ccccc2)nc(-c2ccc3c(c2)OCO3)c(C#N)c1=O | inactive: > 100 µM |
| N=C(N)N/N=C/c1c[nH]c2ccccc12 | inactive: > 100 µM |
| O=C(CSCC(=O)N/N=C\c1cc(Br)cc(Br)c1O)N/N=C\c1cc(Br)cc(Br)c1O | inactive: 6.73 µM |

| Structure (SMILES) | GI50 |
| --- | --- |
| CCCC(=O)NC(Nc1ccc(S(=O)(=O)Nc2nc(C)cc(C)n2)cc1)(C(F)(F)F)C(F)(F)F | inactive: > 100 µM |
| CC1=C(SC#N)S(=O)(=O)N(c2ccccc2)C(C)=C1SC#N | inactive: 28.1 µM |
| CNCCCNc1c2ccccc2nc2cccc([N+](=O)[O-])c12 | active: 0.00562 µM |
| Nc1nc(Nc2ccccc2)sc1C(=O)c1cccs1 | inactive: 6.34 µM |
| CCOC(=O)C(O)(NC(=O)NC(O)(C(=O)OCC)C(F)(F)F)C(F)(F)F (stereo not drawn) | inactive: > 100 µM |
| COc1ccc2[nH]c3c(c2c1)[C@H](C)C[C@@H]1C(=O)N(c2ccccc2)C(=O)[C@H]31 | inactive: 32.6 µM |
| O=Cc1[nH]c2ccccc2c1Br | inactive: 38.5 µM |
| COc1cc2c(c(OC)c1OC)C(=O)[C@@H]1[C@H]2N1C(=O)NCCCl | inactive: 40.8 µM |
| C=CCNC(=O)NC(=O)CSC1=NC(=O)C2(NN1)c1ccccc1-c1ccccc12 | inactive: > 10 µM |
| COc1cc(/C=C2/SC(c3ccccc3)N(c3ccc(NC(C)=O)cc3)C2=O)cc(OC)c1OC (stereo not drawn) | inactive: > 100 µM |
| NS(=O)(=O)c1ccc(/N=N/c2cc3ccccc3c(C(=O)O)c2O)cc1 | inactive: > 58.2 µM |
| CN(C)CCCN1N=Nc2cccc3cccc1c23 | inactive: > 100 µM |
| O=C1c2ccccc2C(=O)c2sc(Nc3ccccc3Cl)nc21 | inactive: 15.3 µM |
| O=C(NCCCCNCCCNC(=O)c1cc(-c2ccccc2)nc2ccccc12)c1cc(-c2ccccc2)nc2ccccc12 | inactive: 1.78 µM |
| OC1CCC(C2C3CCCCC3C3CCCCC3C2C2CCC(O)CC2)CC1 (stereo not drawn) | inactive: 4.44 µM |
| O=c1cnn2c(n1)sc1ccc3ccccc3c12 | inactive: > 100 µM |
| CN(C)CC(C)(C)C(/C=C/c1ccccc1)=N\Nc1ccccc1 | inactive: 28.9 µM |
| Nc1ccc(S(=O)(=O)NCCS(=O)(=O)O)cc1 | inactive: > 100 µM |
| COc1cc2c[n+](C)c3c4cc(OC)c(OC)cc4c(OCCCCCCCCOc4cc5c6cc(OC)c(OC)cc6c[n+](C)c5c5cc(OC)c(OC)cc45)cc3c2cc1OC | inactive: > 100 µM |
| CNC(=S)N/N=C1\C(=O)N(CN2CCOCC2)c2ccc([N+](=O)[O-])cc21 | inactive: 15.9 µM |
| CN(C)Cc1cc(C(=O)/C=C/c2cccc(Cl)c2)cc(CN(C)C)c1O | inactive: 7.87 µM |
